Test results as given in PubChem BioAssay AID493208 (National Center for Advancing Translational Sciences (NCATS), 2011).
In all, about 44,000 compounds went through this assay and about 340 (0.77%) were called active. Inconclusive results (about 5%) are left out. Calls come from the whole dose curve; as a rule, active = well fitted inhibition curve with a large enough effect; inconclusive = small, poorly fitted or top-dose-only effect; inactive = flat fitted curve, though single readings scatter. This is one part of the list.

experiment: Acumen qHTS Assay for Inhibitors of the mTORC1 Signaling Pathway in MEF (Tsc2-/-, p53-/-) Cells: Sytravon; details: phospho-rpS6 immunofluorescence/PI, 24 h; series mostly up to 38.3 µM; activity change, negative = inhibition: at the top concentration; note: nearly all actives have a fitted effect of over 50% in size;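 for activity change, negative = inhibition: plate controls were DMSO for no effect and rapamycin for full effect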
In short: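 Cell-based qHTS: Tsc2-/- p53-/- MEF, 24 h cpd, 37 °C; fix/perm, anti-phospho-S6 Alexa-488 + PI; Acumen 488 nm scan; pS6/PI ratio, % positive cells; rapamycin 7.5 nM = inhibition ref; PI count = viability.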
Potency is the fitted concentration of half-maximal effect.

Row | Structure (SMILES) | activity change, negative = inhibition | Potency
1 | Cc1ccccc1Nc1c(-c2ccco2)nc2c(C)cccn12 | inactive: 3.81% | –
2 | Cc1ccc(CS(=O)(=O)c2ncc(Cl)c(C(=O)Nc3nc4ccc(C)cc4s3)n2)cc1 | inactive: -0.341% | –
3 | Cc1cccc(NC(=O)Cn2c(=O)n(CCCS(=O)(=O)C3CCCCC3)c(=O)c3ccccc32)c1 | inactive: -6.73% | –
4 | CCCCN(CCCC)CCNC(=O)Cn1nc(CC)n2c(cc3sc(C)cc32)c1=O | inactive: -0.318% | –
5 | O=S1(=O)c2ccccc2N(Cc2cccc(C(F)(F)F)c2)c2ccccc21 | inactive: 0.522% | –
6 | CCOC(=O)c1ccc(-n2c(C)nc3c(cnn3-c3ccc(Cl)cc3)c2=O)cc1 | inactive: -0.773% | –
7 | Cc1ccc(-c2onc(C)c2C)cc1S(=O)(=O)N1c2ccccc2CC1C (stereo unspecified) | inactive: -2.45% | –
8 | COc1ccc(CCNC(=O)c2c(O)nc3c(C)cccn3c2=O)cc1 | inactive: 0.829% | –
9 | CCOCCc1nn2c(=O)cc(COC(=O)c3ccccc3NC(=O)C3CCCCC3)nc2s1 | inactive: 2.56% | –
10 | O=C(NCCn1cc(SCc2ccc(Cl)cc2)c2ccccc21)c1cccs1 | inactive: -4.24% | –
11 | COc1cccc(-c2nc(SCC(=O)Nc3ccc4c(c3)OCCO4)c(-c3ccccc3)[nH]2)c1 | inactive: -0.392% | –
12 | COc1cc(OC)c(N(C)C(=O)CCNC(=O)Cn2cnc3ccccc3c2=O)cc1Cl | inactive: -2.68% | –
13 | CCOC(=O)c1[nH]c(C)c(CCC(=O)N2CCN(c3cccc(OC)c3)CC2)c1C | inactive: 0.0901% | –
14 | CCCCN(CC)C(=O)CSc1nc2n[nH]c(C)c2c(=N)n1-c1cccc(Cl)c1 | inactive: -3.35% | –
15 | Cc1ccc(-c2noc(-c3ccccc3NC(=O)c3ccccc3)n2)cc1 | inactive: -16.5% | –
16 | CCC(=O)N1CCc2cc(Br)cc(S(=O)(=O)CCC(=O)NCc3ccccc3OC)c21 | inactive: -1.38% | –
17 | CCOc1ccc(NC(=O)Cn2ncc3c2-c2cc(C)ccc2OC3)cc1 | inactive: 3.72% | –
18 | Cc1ccc(NC(=O)Cc2ccc(-n3c(C)nc4cccnc43)cc2)c(Cl)c1 | inactive: -10.6% | –
19 | COc1ccccc1C(=O)NCCn1cc(SCC(=O)Nc2ccccc2F)c2ccccc21 | inactive: 0.232% | –
20 | COc1ccc(CCNC(=O)C(=O)Nc2ccccc2F)cc1 | inactive: -14.2% | –
21 | Cc1ccc(CNC(=O)C(=O)Nc2c3c(nn2-c2ccccc2)CSC3)cc1 | inactive: -0.774% | –

Row | Structure (SMILES) | activity change, negative = inhibition | Potency
22 | O=C(NCc1ccccc1)c1ccc(CNS(=O)(=O)c2ccc(Br)cc2)cc1 | inactive: -3.88% | –
23 | COc1ccccc1CNS(=O)(=O)c1ccc2c(c1)CC(C)N2C(C)=O (stereo unspecified) | inactive: -11.9% | –
24 | CC1CCN(S(=O)(=O)c2ccc3c(c2)N(CC(=O)NC(C)c2ccccc2)C(=O)CS3)CC1 (stereo unspecified) | inactive: 0.96% | –
25 | Cc1ccc(C)c(N2CCN(S(=O)(=O)c3ccc4[nH]c5c(c4c3)CCCCC5)CC2)c1 | inactive: -1.7% | –
26 | CC(C)Cn1cc(NC(=O)N2CCN(c3cccc(Cl)c3)CC2)c2ccccc2c1=O | inactive: -1.92% | –
27 | COc1cc(Cl)c(S(=O)(=O)NCCc2c(C)[nH]c3c(C)cccc23)cc1Cl | inactive: -8.41% | –
28 | CCc1ccc(NC(=O)N2CCOc3ccc(Cl)cc32)cc1 | inactive: -19.8% | –
29 | COC(=O)c1ccc(NC(=O)CC2C(=O)N(c3cccc(OC)c3)C(=O)N2Cc2cccs2)cc1 (stereo unspecified) | inactive: -1.08% | –
30 | Cc1ccc(-c2nc(NC(=O)CSc3cc(C)c4ccccc4n3)ns2)cc1 | inactive: 2.73% | –
31 | Cc1cc(C)c(NC(=O)c2cc(S(=O)(=O)N3CCC4(CC3)OCCO4)ccc2F)c(C)c1 | inactive: 11.7% | –
32 | CCN(CCCNC(=O)Cn1ncc2c3ccccc3n(C)c2c1=O)Cc1ccccc1 | inactive: -1.07% | –
33 | COc1ccc(Cn2c(C(=O)O)c(CNCc3ccccc3F)c3ccc(OC)cc32)cc1 | – | active: 11.7 µM
34 | COC(=O)c1ccc(C2c3c(-c4ccccc4O)n[nH]c3C(=O)N2Cc2cccnc2)cc1 (stereo unspecified) | inactive: -13.3% | –
35 | O=C(Nc1cc(-c2nc3cc(Cl)ccc3o2)ccc1Cl)c1ccco1 | inactive: -1.85% | –
36 | COc1cccc(C2C(C(=O)Nc3ccc(C)cc3C)=C(C)Nc3c(C(=O)Nc4ccccc4)cnn32)c1 (stereo unspecified) | inactive: 6.4% | –
37 | O=C(Nc1nnc(S(=O)(=O)N2CCCc3ccccc32)s1)c1cccc(Cl)c1 | inactive: 9.54% | –
38 | CCc1ccc(NC(=O)CSc2nc(=O)n(Cc3ccccn3)c3c2CCC3)cc1 | inactive: 3.22% | –
39 | CCc1cccc(C)c1NS(=O)(=O)c1c(C(=O)N2CCC(C)CC2)c(C)n(C)c1C | inactive: 0% | –
40 | COc1ccc(S(=O)(=O)N2CCC(C(=O)Nc3ccc(Oc4ccccc4)cc3)CC2)cc1 | inactive: -13.2% | –
41 | COc1ccc(NC(=O)c2cc(S(=O)(=O)N3CCOCC3)ccc2OC)cc1 | inactive: 0.158% | –
42 | COc1ccc(S(=O)(=O)Nc2cccc(-c3ccc(N4CCCC4)nn3)c2)c(OC)c1 | inactive: 4.65% | –

Row | Structure (SMILES) | activity change, negative = inhibition | Potency
43 | COc1cc(Cl)c(C)cc1NC(=O)C1CCN(c2nc3ccccc3n3cccc23)CC1 | – | active: 14.7 µM
44 | Cc1ccc(C)c(NC(=O)N2CCN(C(=O)c3nsc4ccccc34)CC2)c1 | inactive: 11.9% | –
45 | COc1ccc(CNC(=O)c2cc3cc4cc(OC)ccc4nc3o2)cc1 | inactive: 0.905% | –
46 | COc1cccc(CNC(=O)c2ccc3c(c2)c(C)c(C)n3Cc2ccccc2)c1 | inactive: 7.97% | –
47 | Cc1nnc(N2CCC(C(=O)NC3CCCCC3)CC2)c2nn(-c3ccccc3)c(C)c12 | inactive: -0.361% | –
48 | NC(=O)C1CCN(C(=O)c2ccc(NC(=O)c3nsc4ccccc34)cc2)CC1 | inactive: -10.4% | –
49 | CCOc1ccccc1N(CC)C(=O)Cn1ncc2c([nH]c3ccccc32)c1=O | inactive: 0.428% | –
50 | Clc1cccc(-c2ccc(CNCCSc3nnnn3-c3ccccc3)o2)c1 | inactive: -15.4% | –
51 | O=C(c1ccccc1)N1CCN(CCc2ccncc2)CC1 | inactive: -9% | –
52 | CCOC(=O)c1c(C)[nH]c(C)c1S(=O)(=O)N1CCC(C(=O)Nc2cc(Cl)ccc2OC)CC1 | inactive: 3.39% | –
53 | CC1=C(c2ccc(C)c(C)c2)S(=O)(=O)NC1=NCc1ccccc1Cl | inactive: 2.77% | –
54 | CCOc1ccc(CCNC(=O)c2cn(C)c3ccc(S(=O)(=O)N4CCCCC4)cc3c2=O)cc1OCC | inactive: 7.67% | –
55 | COc1ccccc1C(=O)Nc1cccc(C(=O)OCc2cc(=O)n3cc(C)sc3n2)c1 | inactive: 0% | –
56 | CCc1nc2nc(C)c(NS(=O)(=O)c3ccc(C(C)(C)C)cc3)c(=O)n2[nH]1 | inactive: -7.8% | –
57 | O=C(CCn1cnc2ccccc2c1=O)NCc1ccccc1Cl | inactive: -2.31% | –
58 | O=C(CNC(=O)c1ccc(F)cc1)OCc1cc(=O)n2nc(C3CC3)sc2n1 | inactive: -12.5% | –
59 | CCOC(=O)c1sc2ncn(CC(=O)Nc3ccc(OCC)cc3)c(=O)c2c1C | inactive: -3.38% | –
60 | COc1ccc(-c2nc(C)c(CCNS(=O)(=O)c3cc(Cl)ccc3Cl)s2)cc1 | inactive: -7.66% | –
61 | Cc1c(C(=O)Nc2cccc(C(F)(F)F)c2)oc2ccc3c(c12)C(=O)CC(C)(C)O3 | inactive: -17.6% | –
